Assay results from PubChem BioAssay AID504466 (National Center for Advancing Translational Sciences (NCATS), 2011).
In all, about 330,000 compounds went through this assay and about 4,200 (1.3%) were called active. The shares of active, inactive and inconclusive entries below differ from those in the screen. Calls follow the shape of the dose curve; as a rule, active = well fitted activation curve with a large enough effect; inconclusive = small, poorly fitted or top-dose-only effect; inactive = no such curve, though single readings can be large or run the other way. Potencies beside an inconclusive call are fits to weak or partial responses and may not hold up.

Test: qHTS screen for small molecules that induce genotoxicity in human embryonic kidney (HEK293T) cells expressing luciferase-tagged ELG1; also: nearly all actives have a fitted effect of over 60% in size
Settings: HEK293T ELG1-luciferase reporter, luminescence, 16 h; series mostly up to 46 µM
Method in brief: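 Genotoxicity was scored as increased ELG1-luciferase reporter signal, measured by ONE-Glo luminescence (30 min, room temperature). Compound or vehicle exposure of the HEK293T reporter cells lasted 16 hr at 37°C.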
Potency is read from the fitted curve at half-maximal effect; tags tell the direction and shape of the fitted curve.

Compound	Potency
COc1ccc(CCNC(=O)c2cc(S(=O)(=O)N3CCOCC3)cn2C)cc1OC	inactive
N#Cc1c(NC(=O)C2CC2)sc2c1CCCCC2	inconclusive: 16.4 µM [activator, partial curve, poor fit]
O=C1c2ccccc2-c2nnc(-c3ccc(O)cc3)cc21	inconclusive: 1.64 µM [activator, partial curve]
COc1cc(OC)c2c(-c3cccc(/C=C/c4ccc(F)cc4)c3)cc(=O)oc2c1	inconclusive: 9.2 µM [activator, partial curve]
CC(=O)C1C(=O)c2c(cccc2[N+](=O)[O-])C1=Nc1ccccc1C (centres undefined)	inconclusive: 23.1 µM [activator, partial curve, poor fit]
CCOC(=O)CN1N=C(/C=C/c2ccc(C)cc2)CCC1=O	inactive
Cc1ccc2cc(/C=C/C(=O)c3ccco3)c(Cl)nc2c1	inconclusive: 23.1 µM [activator, single point]
CCN(CC(=O)NCc1ccc(Cl)cc1)C(=O)COc1ccc(Cl)cc1Br	inactive
CCCC[n+]1ccn(C2=C([O-])c3ccccc3C(=O)/C2=N\S(=O)(=O)c2ccccc2)c1	inactive
O=C(NC(=S)Nc1ccccc1)c1ccc(Br)o1	inconclusive: 10.3 µM [activator, partial curve, poor fit]
O=c1c2c(nc3cc(-c4ccc(Cl)cc4)[nH]n13)CCS2	inconclusive: 6.51 µM [activator, partial curve]
CO/N=C/CC(=O)c1ccc(-c2ccccc2)cc1	inactive
CCOc1ccccc1OCCC(=O)OCC(=O)Nc1c(C)nn(-c2ccccc2)c1C	inactive
O=C(OC1CCOC1=O)c1cccc(S(=O)(=O)N2CCc3ccccc3C2)c1 (centres undefined)	inconclusive: 0.092 µM [activator, full curve, poor fit]
Cc1cc(C(=O)COC(=O)CCC(=O)c2ccc3c(c2)OCCO3)c(C)n1Cc1ccco1	inconclusive: 11.2 µM [activator, partial curve]
CCOc1ccc(NS(=O)(=O)c2ccc(C(=O)N3CCN(c4ncccn4)CC3)cc2)cc1	inactive
Cc1cc(C(N)=O)c2ccccc2n1	inactive
CCOC(=O)N/N=C(\C)c1ccc(Br)cc1	inconclusive: 20.6 µM [activator, partial curve]
O=C(NCc1ccco1)C1CCCN(c2nnc(-n3cccc3)s2)C1 (centres undefined)	inactive
O=C(NOCc1ccccc1)c1ccc(Cl)cc1Cl	inconclusive: 0.82 µM [activator, full curve]
COC(=O)c1ccc(-c2nc3cc(N)ccc3o2)cc1	inconclusive: 2.31 µM [activator, full curve, poor fit]
COc1ccc(N2Cc3ccccc3C2)cc1Cl	active: 20.6 µM
O=C(O)c1ccccc1Nc1cccc(OCc2ccc3ccccc3n2)c1	inconclusive: 20.6 µM [activator, partial curve]
Cc1cc(C)c(Cn2cnc(-c3ccc([N+](=O)[O-])cc3)c2)c(C)c1	inactive
Cc1cc(C(=O)Nc2nnc(C3CC3)s2)c(C)s1	inconclusive: 18.3 µM [activator, partial curve]

Compound	Potency
CCc1nc(SCc2ccc(F)cc2)n[nH]1	inconclusive: 13 µM [activator, partial curve, poor fit]
CC(=O)n1c2ccccc2c2nc3ccccc3nc21	inconclusive: 10.3 µM [activator, partial curve, poor fit]
O=C(N/N=C/c1ccc(Br)s1)c1ccccn1	active: 9.2 µM
Cc1cc(-c2ccccc2)nc(N/N=C/c2cccnc2)n1	inactive
COc1cccc(COc2ccc3c(C)cc(=O)oc3c2)c1	active: 7.3 µM
CCOc1cc(/C=N/O)ccc1OCc1ccc(C)cc1	inconclusive: 16.4 µM [activator, partial curve, poor fit]
CCCCn1c(N)c(N(CCOC)C(=O)c2c(C)noc2C)c(=O)[nH]c1=O	inactive
CC(=O)c1sc(-c2ccc(F)cc2F)nc1C	inactive
Clc1ccc(-c2nnc(CCc3ccccc3)o2)c(Cl)c1	inconclusive: 8.2 µM [activator, partial curve]
O=C(CSc1ccc(-c2ccc(-n3cccn3)cc2)nn1)Nc1ccccc1F	inconclusive: 5.17 µM [activator, partial curve]
Cc1ccc(-c2nc3sc4c(c3c(=O)n2N)CC(C)(C)OC4)cc1	inactive
Brc1ccc(-c2csc(NNC3=NCCCCC3)n2)cc1	inactive
c1ccc2oc(-c3ccn[nH]3)cc2c1	inconclusive: 18.3 µM [activator, partial curve, poor fit]
CCc1ccc(S(=O)(=O)NCCOc2cccc3cccnc23)cc1	inactive
Cc1cc(C)cc(-n2c(C)cc(/C=N/NC(=O)CN(c3c(C)cccc3C)S(C)(=O)=O)c2C)c1	inactive
CCn1nnc(NC(=O)c2ccc(-c3ccccc3[N+](=O)[O-])o2)n1	inconclusive: 25.9 µM [activator, partial curve, poor fit]
CC(C)c1cc(C(=O)N/N=C/c2ccco2)n[nH]1	inconclusive: 18.4 µM [activator, partial curve, poor fit]
CN(C)/C=N/c1cnc(C(=O)c2ccc(Cl)cc2)n1C	active: 6.31 µM
Cc1csc(Nc2ccccc2)n1	inconclusive: 18.3 µM [activator, partial curve, poor fit]
CC(=O)N(C)c1ccc(NC(=O)/C=C/c2ccccc2Cl)cc1	inconclusive: 18.4 µM [activator, partial curve, poor fit]
Cc1cc(C(=O)Nc2sc3c(c2C#N)CCCCC3)cs1	active: 0.82 µM
CCOC(=O)c1ccccc1NC(=O)c1cn(CC)c2nc(C)ccc2c1=O	inconclusive: 1.64 µM [activator, partial curve]
COc1ccc(-c2csc(NC(=O)CN3C(=O)CCC3=O)n2)c(OC)c1	inactive
CC(=O)c1ccc(NC(=O)c2ccn(C(=O)OCC(C)C)n2)cc1	inconclusive: 23.1 µM [activator, single point]
